Assay results published in PMC4336329 (PLoS ONE, 2015).
About 14,000 (4.5%) of roughly 310,000 compounds showed an effect of 50% or more. The effect is printed as a negative number. This is one part of the list.

target: human ether-à-go-go-related gene (hERG) potassium channel (human, UniProt Q12809); assay: primary screen, population patch clamp on CHO cells stably expressing hERG
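Also: peak tail current of the secondary pulse compared with the same well before compound.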

Sequence of human ether-à-go-go-related gene (hERG) potassium channel (Q12809 whole entry, looked up): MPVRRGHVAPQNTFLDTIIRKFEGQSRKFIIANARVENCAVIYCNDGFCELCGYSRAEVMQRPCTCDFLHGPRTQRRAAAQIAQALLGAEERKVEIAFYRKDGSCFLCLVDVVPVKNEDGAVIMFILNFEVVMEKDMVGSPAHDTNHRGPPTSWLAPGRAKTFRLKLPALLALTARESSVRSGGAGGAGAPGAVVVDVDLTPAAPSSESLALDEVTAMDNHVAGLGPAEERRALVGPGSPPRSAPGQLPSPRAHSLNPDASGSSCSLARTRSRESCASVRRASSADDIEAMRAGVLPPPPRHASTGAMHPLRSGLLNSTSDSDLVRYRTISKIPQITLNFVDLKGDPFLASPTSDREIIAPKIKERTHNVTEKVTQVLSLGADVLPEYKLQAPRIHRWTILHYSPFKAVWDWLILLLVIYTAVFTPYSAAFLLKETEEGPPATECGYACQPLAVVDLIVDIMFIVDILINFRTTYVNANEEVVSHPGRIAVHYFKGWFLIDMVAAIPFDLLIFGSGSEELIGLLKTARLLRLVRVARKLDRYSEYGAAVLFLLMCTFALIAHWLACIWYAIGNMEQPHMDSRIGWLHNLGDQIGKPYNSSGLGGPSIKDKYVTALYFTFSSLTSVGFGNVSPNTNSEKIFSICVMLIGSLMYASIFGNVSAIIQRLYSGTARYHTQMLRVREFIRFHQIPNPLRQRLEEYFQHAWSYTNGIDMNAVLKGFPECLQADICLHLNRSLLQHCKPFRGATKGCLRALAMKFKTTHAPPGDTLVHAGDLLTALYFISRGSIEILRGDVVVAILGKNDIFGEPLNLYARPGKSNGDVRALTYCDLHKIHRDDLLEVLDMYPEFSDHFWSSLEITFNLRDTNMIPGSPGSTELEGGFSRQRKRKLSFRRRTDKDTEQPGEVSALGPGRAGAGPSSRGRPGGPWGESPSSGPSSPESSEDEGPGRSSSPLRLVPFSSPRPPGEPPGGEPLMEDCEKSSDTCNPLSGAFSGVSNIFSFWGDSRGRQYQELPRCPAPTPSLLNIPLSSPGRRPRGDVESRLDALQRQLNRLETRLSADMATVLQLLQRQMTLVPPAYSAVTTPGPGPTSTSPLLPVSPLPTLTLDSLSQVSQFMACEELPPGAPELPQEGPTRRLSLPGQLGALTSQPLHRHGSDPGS

| Structure (SMILES) | hERG current change (%, negative = inhibition) at 10uM |
| --- | --- |
| O=C(COC(=O)c1ccc(Cl)c(Cl)c1)Nc1cccnc1Cl | 2.06% |
| COc1cc(S(=O)(=O)NCc2ccncc2)ccc1Br | 10.6% |
| CC(=O)c1ccc(NC(=S)Nc2ccc(Br)c(Cl)c2)cc1 | 12.6% |
| CCOc1ccc(N(Cc2cc3ccc(C)cc3[nH]c2=O)C(=O)COC)cc1 | -28.5% |
| Cc1ccccc1NC(=S)NC(C)C(c1cccs1)N1CCOCC1 (stereo not drawn) | 2.05% |
| COc1ccc(/C=C/C(=O)OC2CCCCC2CN(C)C)cc1.Cl (stereo not drawn) | -13.2% |
| C/C(CC(=O)Nc1ccc([N+](=O)[O-])cc1)=N\NC(=O)c1ccccc1O | 1.24% |
| O=C(CN1CCN(Cc2ccccc2)CC1)NCCc1ccccc1 | -8.09% |
| COCCn1c(SCC(=O)NCc2ccccc2)nc2ccccc21 | 1.06% |
| O=C(COc1ccccc1Cl)Nc1cccnc1 | -8.34% |
| CCCCOc1ccc(Cc2c(COCC)[nH]c(=S)[nH]c2=O)cc1 | -13.7% |
| COc1ccc(S(=O)(=O)N2CCOCC2)cc1NC(=O)Cc1ccccc1Cl | 8.42% |
| O=C(N/N=C\c1cccnc1)c1cc(-c2ccc(Cl)s2)[nH]n1 | -1.87% |
| COc1cc(NC(=O)CCCC(=O)OCC(F)(F)C(F)F)nc(OC)n1 | -11.2% |
| CS(=O)(=O)N1CCCC(C(=O)Nc2ccc(F)cc2)C1 (stereo not drawn) | -1.33% |
| CCN1C(=O)C2C(C1=O)N1C(c3cccs3)C3C(=O)N(CC)C(=O)C3N1C2c1cccs1 (stereo not drawn) | 15.7% |
| O=C(C1CCN(c2nnc(-n3cccc3)s2)CC1)N1CCOCC1 | -13.9% |
| Cc1ccc(C(C)C)cc1OCCOCCN1CCCC1 | -38.9% |
| O=C1CC(SC(=Nc2ccccc2)Nc2ccccc2)C(=O)N1c1cccc2ccccc12 (stereo not drawn) | 14.4% |
| Cn1c(SCC(=O)N2c3ccccc3CCc3ccccc32)nnc1-c1cc2ccccc2cc1O | 12.9% |
| COCC1CCCN(C(=O)c2ccc3oc(Cc4ccc(Cl)cc4)nc3c2)C1 (stereo not drawn) | -24.7% |
| O=c1c2cc3c(cc2[nH]c(=S)n1Cc1ccco1)OCO3 | 4.18% |
| Cc1cc(Nc2cccc(F)c2)n2nc(C)nc2n1 | -12.1% |

| Structure (SMILES) | hERG current change (%, negative = inhibition) at 10uM |
| --- | --- |
| CCOc1ccccc1CN1C(=O)c2ccccc2C1C(=O)NCC1CCCO1 (stereo not drawn) | 6.19% |
| CCOC(=O)Cc1csc(NC(=O)C(C)(C)CC)n1 | 1.22% |
| CCOC(=O)c1c(NC(=O)NC(C)(C)C)sc2c1CCN(C)C2 | -21.4% |
| O=C(CN1C(=O)NC2(CCc3ccccc32)C1=O)c1ccc(F)c(F)c1 (stereo not drawn) | -17.1% |
| O=S(=O)(NCC(O)COCc1ccco1)c1cccs1 (stereo not drawn) | 18.5% |
| Nc1c(C(=O)OCC2CCCO2)c2nc3ccccc3nc2n1-c1ccc2c(c1)OCCO2 (stereo not drawn) | 12.5% |
| CN(CC(=O)Nc1cccc(F)c1)C(=O)CCN1C(=O)C2CC=CCC2C1=O (stereo not drawn) | -2.42% |
| Cc1cc(C)c(OCC(=O)OCC(=O)NNC(=O)c2ccccc2F)c(C)c1 | 4.54% |
| COc1ccc2[nH]c(C)c(CCNCc3cc(OC)c4c(c3)OCO4)c2c1.O=C(O)C(=O)O | -17% |
| CSc1nc(N)nc(SCC(=O)C(C)(C)C)c1C#N | -10.5% |
| CCCN(C(=O)c1ccc(N2CCCC2=O)cc1)c1c(N)n(Cc2ccccc2)c(=O)[nH]c1=O | -1.79% |
| COc1ccc(S(=O)(=O)N2CCc3ccccc32)cc1NC(C)=O | 15.7% |
| CN(C)/C=N/c1ncc(C(=O)OC(C)(C)C)s1 | 12.3% |
| COc1ccc(C(=O)CSc2nccc(=O)[nH]2)cc1 | 0.908% |
| CC1(C(=O)Nc2ccc3c(c2)OCO3)CC1(Cl)Cl (stereo not drawn) | 12.5% |
| COc1ccc(-c2nc3n(n2)C(c2ccccc2Cl)C(C(N)=O)=C(C)N3)cc1 (stereo not drawn) | -27.4% |
| CCn1c2ccccc2c2cc(NC(=O)c3cccc(OC)c3)ccc21 | 13.9% |
| COc1ccccc1N1CCN(C(=O)CNC(=O)c2cn(-c3ccccc3OC)c(=O)c3ccccc23)CC1 | -15.6% |
| CC1(C)CC(NC(=O)COc2cc3oc(=O)c4c(c3cc2Cl)CCC4)CC(C)(C)N1 | 11.2% |
| O=C(CSc1nccc(=O)[nH]1)Nc1ccc(Br)c(Cl)c1 | 33.3% |
| Cc1cccc(-c2noc(CN(C(=O)/C=C/c3ccccc3Cl)C(C)C)n2)c1 | -2.77% |
| CC(C)N1CCC(N2CCN(Cc3ccc(C#CC(C)(C)O)s3)CC2CCO)CC1 (stereo not drawn) | 4.56% |
